Assay results reported in PubChem BioAssay AID1460 (National Center for Advancing Translational Sciences (NCATS), 2008).
Screen size: about 270,000 compounds; about 5,800 (2.1%) were called active. This list was built around the results that the source calls inconclusive (neither active nor inactive); the mix of calls is not that of the screen. The call rests on the fitted dose curve; in most records, active means well fitted inhibition curve with a large enough effect; inconclusive means small, poorly fitted or top-dose-only effect; inactive means flat fitted curve, though single readings scatter. Potencies beside an inconclusive call are fits to weak or partial responses and may not hold up.

target: Microtubule-associated protein tau (Homo sapiens) (UniProt P10636); assay: qHTS for Inhibitors of Tau Fibril Formation, Thioflavin T Binding; conditions: recombinant tau K18 P301L (four-repeat tau fragment), heparin-induced fibrillization, ThT fluorescence; series mostly up to 57.4 µM; activity, negative = inhibition: at the top concentration; further: nearly all actives have a fitted effect of over 55% in size
Chain of UniProt P10636 (P10636 whole entry, looked up, the tested form may be a part): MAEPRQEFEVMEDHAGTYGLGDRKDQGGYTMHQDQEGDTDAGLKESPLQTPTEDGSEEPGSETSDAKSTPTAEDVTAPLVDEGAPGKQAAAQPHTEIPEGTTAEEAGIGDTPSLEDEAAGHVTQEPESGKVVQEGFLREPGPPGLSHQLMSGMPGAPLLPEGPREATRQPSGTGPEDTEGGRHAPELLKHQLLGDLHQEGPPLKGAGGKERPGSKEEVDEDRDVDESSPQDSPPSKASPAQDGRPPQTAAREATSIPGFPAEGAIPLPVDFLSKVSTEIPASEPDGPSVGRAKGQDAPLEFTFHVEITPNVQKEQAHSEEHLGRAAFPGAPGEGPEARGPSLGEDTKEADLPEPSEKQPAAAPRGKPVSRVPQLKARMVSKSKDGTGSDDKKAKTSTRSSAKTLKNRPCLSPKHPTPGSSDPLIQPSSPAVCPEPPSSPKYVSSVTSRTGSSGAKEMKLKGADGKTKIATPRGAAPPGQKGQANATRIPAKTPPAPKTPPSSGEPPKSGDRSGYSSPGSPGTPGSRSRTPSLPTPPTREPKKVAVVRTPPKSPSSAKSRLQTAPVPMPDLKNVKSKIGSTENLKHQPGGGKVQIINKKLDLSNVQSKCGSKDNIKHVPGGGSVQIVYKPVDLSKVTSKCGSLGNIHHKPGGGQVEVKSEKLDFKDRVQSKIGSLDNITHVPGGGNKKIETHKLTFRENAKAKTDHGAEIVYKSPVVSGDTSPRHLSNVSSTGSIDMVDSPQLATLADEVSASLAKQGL
Outline: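 K18 P301L tau (15 uM + 0.24 uM Alexa 594-tagged), heparin 20 uM, NaOAc pH 7, 6 h 37 C; ThT 30 uM, 1 h RT, ex 450/em 510 nm.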
On the % scale 0 is the no-effect control and ±100 the full control effect; potency means the concentration at half of the fitted maximal effect; tags describe the fitted curve by direction and shape.

Row | Structure (SMILES) | activity, negative = inhibition | Potency
1 | O=C1N=c2ccccc2=C1c1sc(=S)n(CC2CCCO2)c1O (centres undefined) | inactive: -12% | 
2 | C(=N\N1CCN(c2ccccn2)CC1)/C1=C(N2CCOCC2)C(=C/c2ccccc2)/CC1 |  | active: 11.2 µM
3 | O=C(CSc1nnc2scc(-c3ccccc3)n12)Nc1ccc2c(c1)OCCO2 | inactive: -10.1% | 
4 | Cc1ccc(C)c(N2CCN(C(=S)Nc3ccc4nc(N5CCN(C)CC5)cc(C)c4c3)CC2)c1 |  | inconclusive: 7.08 µM [inhibitor, partial curve]
5 | Cc1ccc(-n2nnc3c(SCC(=O)NCC4CCCO4)ncnc32)cc1 (centres undefined) |  | inconclusive: 6.31 µM [inhibitor, full curve]
6 | Cc1ccc(C)c(SCC(=O)OCC(=O)NCc2ccccc2)c1 | inactive: -7.32% | 
7 | Nc1nc(SCC(=O)Nc2ccccc2Sc2ccccc2)n[nH]1 | inactive: -5.16% | 
8 | O=C(CCCCCn1c(=O)[nH]c2ccccc2c1=O)NCCc1c[nH]c2ccccc12 |  | inconclusive: 15.8 µM [inhibitor, partial curve]
9 | Cc1ccc(C)c(S(=O)(=O)NCC(=O)Nc2sc3c(c2C(N)=O)CCC(C)C3)c1 (centres undefined) |  | inconclusive: 2 µM [inhibitor, full curve]
10 | Cc1ccc2c(=O)cc(C(=O)Nc3c(C)cccc3C)oc2c1 |  | inconclusive: 17.8 µM [inhibitor, single point]
11 | CCOC(=O)C1(C)C=C(Nc2ccc(OCC)cc2)C(=O)N1c1ccccc1 (centres undefined) |  | inconclusive: 11.2 µM [inhibitor, partial curve]
12 | CC(=O)Nc1ccc(NC(=O)CC2Nc3cccc4cccc(c34)NC2=O)cc1 (centres undefined) |  | inconclusive: 14.1 µM [inhibitor, partial curve]
13 | Cc1ccccc1S(=O)(=O)Cc1ccc(C(=O)N2CCN(c3cccc(C)c3C)CC2)o1 |  | inconclusive: 20 µM [inhibitor, partial curve]
14 | COc1ccc(/C=C/c2nc(C#N)c(N3CCCCC3)o2)cc1OC |  | inconclusive: 10 µM [inhibitor, partial curve]
15 | COc1cccc2cc(-c3nc4sc5c(c4c(=O)[nH]3)CCC(C(C)(C)C)C5)c(=O)oc12 (centres undefined) | inactive: -9.62% | 
16 | COc1ccc(Oc2nc3c(c(=O)n(C)c(=O)n3C)n2Cc2ccccc2)cc1 | inactive: -8.92% | 
17 | CCCOc1ccc(N2C(=O)CC(SCCc3nc4ccccc4[nH]3)C2=O)cc1 (centres undefined) | inactive: -15.6% | 
18 | CCC(=O)N1CCc2cc(Br)cc(S(=O)(=O)N3CCCC(C(=O)NCc4ccc(C)cc4)C3)c21 (centres undefined) | inactive: -6.64% | 
19 | CCOC(=O)c1c(C)n(-c2ccc(C)cc2)c2ccc(OCC(O)CNCCCO)cc12 (centres undefined) | inactive: -16.8% | 
20 | Cc1cccc(NC(=O)Cn2cc(S(=O)(=O)N3CCCC3)c(S(=O)(=O)N3CCCC3)c2)c1C | inactive: 0.976% | 
21 | CCN(CC)c1ccc(C(=O)NCc2nc3cccnc3n2Cc2ccc(C)cc2)cc1 |  | inconclusive: 28.2 µM [inhibitor, partial curve]
22 | C(=N\Nc1ccccc1)/c1nc2ccccc2s1 |  | inconclusive: 7.94 µM [inhibitor, partial curve]
23 | Cc1ccc(-c2cc(C(F)F)n3ncc(C(=O)N4CCc5ccccc54)c3n2)cc1 | inactive: -7.21% | 

Row | Structure (SMILES) | activity, negative = inhibition | Potency
24 | Cc1nc2c(c(=O)n1Cc1ccco1)c1nc3ccccc3nc1n2Cc1ccccc1 |  | inconclusive: 28.2 µM [inhibitor, single point]
25 | COc1ccccc1Nc1ncnc2c1oc1ccccc12 |  | inconclusive: 25.1 µM [inhibitor, partial curve, poor fit]
26 | COC(=O)c1ccc(C(NC(=O)OCc2ccccc2)/C(=C/[C@@H](C)C(=O)NCc2cc(C)on2)c2cccnc2)cc1 (some centres undefined) | inactive: -7.55% | 
27 | CCOC(=O)c1c(C)[nH]c(C)c1S(=O)(=O)NCC(=O)Nc1cccc(SC)c1 | inactive: -3.15% | 
28 | O=C(CSCCSCC(=O)c1ccco1)c1ccco1 |  | inconclusive: 22.4 µM [inhibitor, single point]
29 | CCOC(=O)c1ccc2c(c1)nc(SC/C(O)=C(\C#N)c1nc3ccccc3[nH]1)n2CC |  | inconclusive: 20 µM [inhibitor, partial curve]
30 | CCCOC(=O)CCCN1C(=O)/C(=C2\SC(=S)N(CCCC(=O)OCCC)C2=O)SC1=S |  | inconclusive: 2.51 µM [inhibitor, full curve]
31 | COc1ccccc1NCc1ccc([N+](=O)[O-])s1 |  | inconclusive: 25.1 µM [inhibitor, single point]
32 | COc1ccc(O)c(/C=N\NC(=O)CCn2nnc3ccccc32)c1 |  | inconclusive: 39.8 µM [inhibitor, single point]
33 | CSc1c(SCc2ccccc2)cnn(-c2ccccc2)c1=O |  | inconclusive: 22.4 µM [inhibitor, single point]
34 | CC(=O)Nc1ccc(SCC(=O)c2cc(C)n(-c3ccccc3F)c2C)cc1 |  | inconclusive: 31.6 µM [inhibitor, single point]
35 | COC(=O)C1=C(C)NC2=C(C(=O)CCC2)C1c1cccs1 (centres undefined) | inactive: 2.4% | 
36 | O=C(Nc1nc(-c2ccccn2)cs1)c1ncc(Cl)c(Cl)c1Cl |  | inconclusive: 14.1 µM [inhibitor, partial curve]
37 | Cc1cc(C)c(S(=O)(=O)Nc2cccc3nsnc23)c(C)c1 |  | inconclusive: 35.5 µM [inhibitor, partial curve]
38 | CC1=Nc2ccccc2/C1=C\c1nc(-c2ccc(F)cc2)oc1O |  | active: 7.08 µM
39 | Cc1ccccc1C(=O)Nc1ccc(S(=O)(=O)N2CCC(c3nc4ccccc4s3)CC2)cc1 | inactive: -8.85% | 
40 | CCCc1[nH]nc2c1C(c1ccoc1)C(C#N)=C(N)O2 (centres undefined) |  | inconclusive: 12.6 µM [inhibitor, partial curve]
41 | Cc1cc(C)nc(NS(=O)(=O)c2ccc(N3Cc4ccccc4C3=O)cc2)n1 | inactive: -12.3% | 
42 | O=C(O)c1cc(-c2ccc(/C=C3\NC(=O)N(c4ccccc4)C3=O)o2)ccc1Cl |  | inconclusive: 25.1 µM [inhibitor, partial curve]
43 | CCOC(=O)c1cc2c(C)n(-c3ccc(C)cc3)c(C)c2ccc1=O |  | inconclusive: 28.2 µM [inhibitor, partial curve]
44 | COc1ccc(-c2nsc(SCC(=O)NCC3CCCO3)n2)cc1 (centres undefined) | inactive: -15% | 
45 | COCC1=C2c3ccccc3[C@@H]3CNC(=O)C3(C(=O)OC)C[C@@H]2n2c(=O)n(-c3ccccc3)c(=O)n2C1 (some centres undefined) |  | inactive
46 | CCCCOc1ccc(C2=NC(c3cccs3)=Nc3ccc(OC)cc3N2)cc1 |  | inconclusive: 12.6 µM [inhibitor, partial curve]

Row | Structure (SMILES) | activity, negative = inhibition | Potency
47 | COc1ccc(NC(=O)c2c(NCc3cccc(F)c3)sc3c2CCC3)c(OC)c1 |  | inconclusive: 15.8 µM [inhibitor, partial curve]
48 | Cc1ccc(C(=O)N2CCCC2)cc1Br | inactive: -10.7% | 
49 | CC(C)c1cc[n+](-c2nc([O-])sc2C=O)cc1 |  | active: 35.5 µM
50 | Oc1oc(-c2ccccc2Br)nc1C=Nc1ccc(Br)cn1 |  | inconclusive: 2.82 µM [inhibitor, full curve, poor fit]
51 | Clc1ccc(-c2nnc(N3CCCC3)nn2)cc1 |  | inconclusive: 4.47 µM [inhibitor, full curve]
52 | COc1ccc(S(=O)(=O)N(CC(=O)N2CCc3ccccc3C2)c2ccc(C)cc2)cc1 |  | inconclusive: 11.2 µM [inhibitor, partial curve, poor fit]
53 | CN(C)c1ccc(C(=S)NC2CCCCC2)cc1 |  | inconclusive: 20 µM [inhibitor, single point]
54 | COc1cccc([C@H]2Oc3ccc(OC)cc3/C(=N\O[C@@H]3O[C@H](COC(C)=O)[C@H](OC(C)=O)[C@H](OC(C)=O)[C@H]3OC(C)=O)[C@@H]2O)c1 |  | inconclusive: 5.01 µM [inhibitor, partial curve, poor fit]
55 | CC(C)(C)NC(=S)N/N=C/c1cc(Br)c(O)c(Br)c1 |  | inconclusive: 12.6 µM [inhibitor, partial curve]
56 | CCOc1ccc(C(=O)Nc2cccc(C(=O)OCc3cc(=O)n4cc(C)sc4n3)c2)cc1 |  | inconclusive: 0.282 µM [inhibitor, full curve]
57 | Cc1cccc2nc(Cn3c(=O)n(-c4ccc(Cl)cc4)c(=O)c4c5c(sc43)CCC5)cc(=O)n12 | inactive: -18.9% | 
58 | CCc1ccc(-c2ccc(SCc3ccccn3)nn2)cc1 |  | inconclusive: 4.47 µM [inhibitor, partial curve]
59 | CCc1ccc(NC2=NC(C(=O)c3ccccc3)CC(=O)N2)cc1 (centres undefined) | inactive: -11.3% | 
60 | CCOc1ccc(/C=C2\SC(=S)N(N3C(=O)C4CC4C3=O)C2=O)cc1 (centres undefined) |  | inconclusive: 8.91 µM [inhibitor, partial curve]
61 | O=C(Nc1cccc(Cl)c1)N1CCN(Cc2ccccc2)CC1 |  | inconclusive: 25.1 µM [inhibitor, partial curve, poor fit]
62 | COc1ccc(/C=C2\SC(c3ccc(C)cc3)=NC2=O)cc1OC |  | active: 11.2 µM
63 | O=C(/C=C/N1CCOCC1)c1cc2ccccc2o1 |  | inconclusive: 31.6 µM [inhibitor, partial curve]
64 | Cc1nn(CCCC(=O)NCc2ccccc2Br)c(=O)c2c1sc1ccccc12 |  | inconclusive: 12.6 µM [activator, partial curve]
65 | CC[n+]1c(/C=C/N(C)c2ccccc2)oc2ccc(F)cc21 |  | active: 14.1 µM
66 | COc1ccc(-c2coc3c(CN4CCCCC4)c(O)c(CN4CCCCC4)c(O)c3c2=O)cc1 |  | inconclusive: 22.4 µM [inhibitor, partial curve]
67 | Cc1nc2ccc(NS(=O)(=O)c3c(C)c(C)cc(C)c3C)cc2s1 | inactive: -4% | 
68 | O=C(/C=C\Nc1ccc2c(c1)OCO2)c1ccc2c(c1)OCO2 |  | inconclusive: 1.78 µM [inhibitor, full curve]
69 | COc1ccc(N2CCN(CCCNC(=O)c3nnc(Cc4ccc(F)cc4)o3)CC2)cc1 |  | inconclusive: 28.2 µM [inhibitor, single point]
